Not every detail of the peptide structures is certain; ends, links or a residue may be inferred. Non-standard residues stand in square brackets, D forms with d. Residues, ends and D or L forms follow the SMILES beside them. *: point of attachment. Piperazinyl(4-Ph) = c1ccc(N2CCN(*)CC2)cc1; dGly(2-thienyl) = N[C@@H](C(=O)O)c1cccs1; NH(Tetralin-1-yl) = c1ccc2c(c1)CCCC2N*; Tryptamide = c1ccc2c(CCN*)c[nH]c2c1; X7 = c1ccc(C2CCN(*)CC2)cc1; Orn = NCCC[C@H](N)C(=O)O; Bz = O=C(c1ccccc1)*
Columns and labels:
[1] = target: T1, endothelin receptor A (ETA) (Sus scrofa, UniProt Q29010); assay: Assay of affinity for receptor (1): binding activity on ETA receptor, 125I-labeled endothelin-1, porcine heart membrane fraction; set-up: key: relative specific activity; reference cyclic pentapeptide ETA binding = 1.0; conditions: specific activity, taking the binding activity of control cyclo[-D-Glu-Ala-D-aIle-Leu-D-Trp-] on receptor A as 1.0, 25°C, 1 hour
T1 construct: A membrane fraction prepared from the porcine heart; from tissue; host or cells: porcine heart membrane fraction
T1 sequence (Q29010 21-427): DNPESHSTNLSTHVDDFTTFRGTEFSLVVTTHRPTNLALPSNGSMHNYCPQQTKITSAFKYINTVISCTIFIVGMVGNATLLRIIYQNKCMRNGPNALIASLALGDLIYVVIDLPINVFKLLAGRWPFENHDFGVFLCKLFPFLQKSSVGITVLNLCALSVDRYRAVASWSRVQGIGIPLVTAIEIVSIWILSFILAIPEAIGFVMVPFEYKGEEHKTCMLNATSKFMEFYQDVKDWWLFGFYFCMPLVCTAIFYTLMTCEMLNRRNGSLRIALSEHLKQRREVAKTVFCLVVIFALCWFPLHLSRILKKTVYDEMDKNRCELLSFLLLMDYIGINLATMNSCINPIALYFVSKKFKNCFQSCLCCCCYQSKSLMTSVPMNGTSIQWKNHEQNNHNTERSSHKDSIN
Experimental: Assay of Affinity for Receptor (1) ... Binding Activity on ETA Receptor
A membrane fraction prepared from the porcine heart was diluted to 0.15 mg/ml by using a buffer solution for assay, and 100 µl of the resulting suspension of the membrane fraction was poured into each assay tube to use for assay. To this suspension of the membrane fraction was added 2 µl of 5 nM ^125I-labeled endothelin-1 solution. Further, 3 µl of a test peptide solution was added thereto, followed by incubation at a temperature of 25°C for 1 hour. Then, the resulting suspension was diluted with 900 µl of the buffer solution for assay cooled with ice, and thereafter separated into a supernatant and a precipitate by centrifugation at 12,000 X g for 10 minutes. Cell membranes and an endothelin receptor A (ETA) embedded therein were contained in the precipitate, and radioactive iodine-labeled endothelin combined with the receptor was also recovered in the precipitate. Accordingly, the amount of radioactive iodine-labeled endothelin combined with the endothelin receptor A (ETA) was determined by measuring the amount of radioactive iodine contained in the precipitate with a gamma-ray counter. The cyclic pentapeptide described in Japanese Patent Application No. 2-413328/1990, cyclo[-D-Glu-Ala-D-aIle-Leu-D-Trp-], was used as a control compound. The numerical value of ETA shown in Table 1 is the value of specific activity, taking the binding activity of this cyclic pentapeptide on the receptor A as 1.0. The binding activity (IC50) of this cyclic pentapeptide on the ETA receptor is 2x10^-6 M.

[2] = target: T2, endothelin receptor B (ETB) (Bos taurus, UniProt P28088); assay: Assay of affinity for receptor (2): binding activity on ETB receptor *1, 125I-labeled endothelin-1, bovine brain membrane fraction; conditions: specific activity, taking the binding activity of the compound of Example 8 on receptor B as 100, 25°C, 1 hour
T2 construct: A membrane fraction prepared from the bovine brain; from tissue; host or cells: bovine brain membrane fraction
T2 sequence (P28088 27-441): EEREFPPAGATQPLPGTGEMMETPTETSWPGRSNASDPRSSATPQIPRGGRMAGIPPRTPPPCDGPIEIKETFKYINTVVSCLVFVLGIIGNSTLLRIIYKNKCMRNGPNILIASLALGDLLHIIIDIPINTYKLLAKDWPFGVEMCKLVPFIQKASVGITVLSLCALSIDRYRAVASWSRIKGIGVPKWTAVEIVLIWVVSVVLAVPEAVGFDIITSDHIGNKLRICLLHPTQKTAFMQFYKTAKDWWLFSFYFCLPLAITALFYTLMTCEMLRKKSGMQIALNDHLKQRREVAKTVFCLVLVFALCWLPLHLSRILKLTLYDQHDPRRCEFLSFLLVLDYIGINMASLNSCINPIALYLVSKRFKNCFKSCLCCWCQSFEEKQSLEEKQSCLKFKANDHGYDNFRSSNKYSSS
Experimental: Assay of Affinity for Receptor (2) ... Binding Activity on ETB Receptor *1
A membrane fraction prepared from the bovine brain was diluted to 0.15 mg/ml by using a buffer solution for assay, and 100 µl of the resulting suspension of the membrane fraction was poured into each assay tube to use for assay. To this suspension of the membrane fraction was added 2 µl of 5 nM ^125I labeled endothelin-1 solution. Further, 3 µl of a test peptide solution was added thereto, followed by incubation at a temperature of 25°C for 1 hour. Then, the resulting suspension was diluted with 900 µl of the buffer solution for assay cooled with ice, and thereafter separated into a supernatant and a precipitate by centrifugation at 12,000 X g for 10 minutes. Cell membranes and an endothelin receptor B (ETB) embedded therein were contained in the precipitate, and radioactive iodine-labeled endothelin bound to the receptor was also recovered in the precipitate. Accordingly, the amount of radioactive iodine-labeled endothelin bound to the endothelin receptor B (ETB) was determined by measuring the amount of radioactive iodine contained in the precipitate with a gamma-ray counter. The numerical value of ETB shown in Table 1 is the value of specific activity, taking the binding activity of the compound of Example 8 on the receptor B as 100.

ETB = ETB radio receptor assay *2, 125I-endothelin-1, guinea pig kidney crude membrane fraction; type: binding, Guinea pigs; conditions: relative activity, 37 °C, 90 minutes
Experimental: ETB Radio Receptor Assay *2
In the endothelin radio receptor assay, guinea pigs' kidneys were used. Guinea pigs (Std Hartrey, male 250 g, Japan SLC Ltd.) were made to have a cerebral concussion and sacrificed by bleeding from carotid arteries to pick up the kidneys and removed fat therefrom to prepare the kidneys. The obtained kidneys were sliced and homogenized by politron homogenizer in 20 ml of 50 mM Tris-HCl buffer [pH 7.4; 20 mM NaHCO3, 0.1 mM PMSF (Phenylmethylsulfonyl Fluoride), 1 mM EDTA (Ethylenediaminetetraacetic acid)] per one kidney. The homogenized kidney was applied to a centrifugation at 1,000 x g for 15 minutes and the supernatant was further applied to a centrifugation for 20 minutes at 30,000 x g. The resulting precipitate was twice washed with 50 mM Tris-HCl buffer (pH 7.4) containing 0.1 mM PMSF, 1 mM EDTA. The resultant was stored at -80 °C as a crude receptor membrane fraction and was used as the suspension in the following buffer when necessary.
740 Bq of ^125I-endothelin-1 (81.4 TBq/mmol, Du Pont, USA) as a radio ligand, the crude membrane fraction (2.1 µg protein) and samples were added to the following buffer. The reaction was performed at 37 °C, for 90 minutes in 0.2 ml of the buffer [50 mM Tris-HCl buffer (pH 7.4) containing 0.1 mM PMSF, 1 mM EDTA, 0.2% bovine serum albumin].
The reaction was stopped by fast filtration on a glass filter (GF/B, Wattman, USA) by Cell Harvestor (290 PHD, Cambridge-Technology, Great Britain), and the filter was three times washed with 50 mM Tris-HCl buffer (pH 7.4). Radio activity remained on the filter was assayed by a gamma counter.

Row | SMILES | Binding Activity on ET Receptor (R. act.) ETA [1] | Binding Activity on ET Receptor (R. act.) ETB*1 [2] | Binding Activity on ET Receptor (R. act.) ETB*2 (ETB)
1 | CC(C)C[C@@H]1NC(=O)[C@@H](CC(C)C)NC(=O)[C@H](CC(=O)O)NC(=O)[C@H](CC(=O)NCCc2c[nH]c3ccccc23)NC(=O)[C@@H](CC(=O)O)NC(=O)[C@@H](Cc2c[nH]c3ccccc23)NC1=O [Example 12, cyclo[-D-Asp-Asn(CH2CH2-Ind)-Asp-D-Leu-Leu-D-Trp-]] (cyclo(D(Tryptamide)D[dL]L[dW][dD])) | 220 | 230 | 150
2 | CC(C)C[C@@H]1NC(=O)[C@@H](CC(C)C)NC(=O)[C@H](CC(=O)O)NC(=O)[C@H](CCC(=O)NCCc2c[nH]c3ccccc23)NC(=O)[C@@H](CC(=O)O)NC(=O)[C@@H](Cc2c[nH]c3ccccc23)NC1=O [Example 64, Cyclo[-D-Asp-Gln(CH2CH2-Ind)-Asp-D-Leu-Leu-D-Trp-]] (cyclo(D[dL]L[dW][dD]E(Tryptamide))) | 120 | – | 270
3 | CC(C)C[C@@H]1NC(=O)[C@@H](CC(C)C)NC(=O)[C@H](CC(=O)O)NC(=O)[C@H](CC(=O)N2CCN(c3ccccc3)CC2)NC(=O)[C@@H](CC(=O)O)NC(=O)[C@@H](Cc2c[nH]c3ccccc23)NC1=O [Example 70, Cyclo[-D-Asp-Asp(R1)-Asp-D-Leu-Leu-D-Trp-]] (cyclo(D(Piperazinyl(4-Ph))D[dL]L[dW][dD])) | 360 | 1500 | 2600
4 | CC(C)C[C@@H]1NC(=O)[C@@H](CC(C)C)NC(=O)[C@H](CC(=O)O)NC(=O)[C@H](CC(=O)N2CCC(c3ccccc3)CC2)NC(=O)[C@@H](CC(=O)O)NC(=O)[C@@H](Cc2c[nH]c3ccccc23)NC1=O [Example 71, Cyclo[-D-Asp-Asp(R2)-Asp-D-Leu-Leu-D-Trp-]] (cyclo(D(X7)D[dL]L[dW][dD])) | 160 | – | 1000
5 | CC(C)C[C@@H]1NC(=O)[C@@H](CC(C)C)NC(=O)[C@H](CC(=O)O)NC(=O)[C@H](CCC(=O)NC2CCCc3ccccc32)NC(=O)[C@@H](CC(=O)O)NC(=O)[C@@H](Cc2c[nH]c3ccccc23)NC1=O (stereo partly drawn) [Example 78, Cyclo[-D-Asp-Glu(R5)-Asp-D-Leu-Leu-D-Trp-]] (cyclo(D[dL]L[dW][dD]E(NH(Tetralin-1-yl)))) | 120 | – | 130
6 | CC(C)C[C@@H]1NC(=O)[C@@H](CC(C)C)NC(=O)[C@H](CC(=O)O)NC(=O)[C@H](CCCNC(=O)c2ccccc2)NC(=O)[C@@H](CC(=O)O)NC(=O)[C@@H](Cc2c[nH]c3ccccc23)NC1=O [Example 79, cyclo[-D-Asp-Orn(COPh)-Asp-D-Leu-Leu-D-Trp-]] (cyclo(D[dL]L[dW][dD][Orn](Bz))) | 26 | – | 71
7 | CC(C)C[C@@H]1NC(=O)[C@@H](c2cccs2)NC(=O)[C@H](CC(=O)O)NC(=O)[C@H](CC(=O)NCCc2c[nH]c3ccccc23)NC(=O)[C@@H](CC(=O)O)NC(=O)[C@@H](Cc2c[nH]c3ccccc23)NC1=O [Example 90, cyclo[-D-Asp-Asn(CH2CH2-Ind)-Asp-D-Thg(2)-Leu-D-Trp-]] (cyclo(D(Tryptamide)D[dGly(2-thienyl)]L[dW][dD])) | 810 | 590 | 280
8 | CC(C)C[C@@H]1NC(=O)[C@@H](c2cccs2)NC(=O)[C@H](CC(=O)O)NC(=O)[C@H](CC(=O)N2CCN(c3ccccc3)CC2)NC(=O)[C@@H](CC(=O)O)NC(=O)[C@@H](Cc2c[nH]c3ccccc23)NC1=O [Example 96, Cyclo[-D-Asp-Asp(R1)-Asp-D-Thg(2)-Leu-D-Trp-]] (cyclo(D(Piperazinyl(4-Ph))D[dGly(2-thienyl)]L[dW][dD])) | 980 | 1800 | –
